These are yes or no findings as the source states them, for the method shown. For part of these data: Binding seen in cells or lysates may run through a third protein. Some binding calls cover weakened binding; strength is not graded here. For part of these data: Sequences can lack the tags named with a protein.
Experiments:
[1] = target: HA-tagged pVHL30 (human) (UniProt P40337); assay: co-IP; HEK293T transiently transfected with HA-pVHL30 and FLAG-CDKN1; post-nuclear supernatant (20 mM HEPES-Na pH 7.4, 150 mM NaCl, 5 mM CHAPS); anti-VHL antibody on protein A magnetic beads, 4 h at 4 °C; blot with anti-Flag
[2] = target: p21 (CDKN1A), Gal4 DBD fusion (human) (UniProt P38936); assay: two-hybrid; Matchmaker Gold system, Y190 reporter strain; Gal4AD-pVHL and Gal4BD-CDKN1 fusions; serial dilutions spotted on medium lacking histidine with 30 mM 3-AT, 30 °C, 3 to 8 days
[3] = target: p27 (CDKN1B), Gal4 DBD fusion (human) (UniProt P46527); assay: as above
[4] = target: T1, p57 (CDKN1C), Gal4 DBD fusion (human) (UniProt P49918); assay: as above
T1 sequence: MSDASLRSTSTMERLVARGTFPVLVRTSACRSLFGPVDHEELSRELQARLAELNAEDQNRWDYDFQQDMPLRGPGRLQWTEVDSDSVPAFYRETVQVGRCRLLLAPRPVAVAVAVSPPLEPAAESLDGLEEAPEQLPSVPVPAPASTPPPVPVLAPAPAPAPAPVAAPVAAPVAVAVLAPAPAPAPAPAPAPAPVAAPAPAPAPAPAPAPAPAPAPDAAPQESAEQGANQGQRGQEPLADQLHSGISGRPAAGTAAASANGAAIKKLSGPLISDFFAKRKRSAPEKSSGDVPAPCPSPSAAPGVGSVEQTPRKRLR

Protein sequences, listed by entry. Tags and fused reporters are not part of them. Lines headed by an entry give the natural chain unless they say otherwise; changes in a name come on top. Residues count along the entry.
UniProt P40337: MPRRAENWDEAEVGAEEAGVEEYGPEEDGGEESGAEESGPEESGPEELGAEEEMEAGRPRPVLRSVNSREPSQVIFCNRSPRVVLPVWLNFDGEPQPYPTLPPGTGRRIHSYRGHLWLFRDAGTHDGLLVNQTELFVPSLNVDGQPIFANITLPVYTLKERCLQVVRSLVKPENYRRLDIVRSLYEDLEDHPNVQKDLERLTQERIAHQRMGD
UniProt P38936: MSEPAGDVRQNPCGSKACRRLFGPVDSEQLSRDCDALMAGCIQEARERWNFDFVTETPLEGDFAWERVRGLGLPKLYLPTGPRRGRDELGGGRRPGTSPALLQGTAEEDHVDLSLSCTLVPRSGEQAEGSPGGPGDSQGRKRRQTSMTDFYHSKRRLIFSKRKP
p21-ΔN (residues 50-164), Gal4 DBD fusion: residues 50-164 of P38936
UniProt P46527: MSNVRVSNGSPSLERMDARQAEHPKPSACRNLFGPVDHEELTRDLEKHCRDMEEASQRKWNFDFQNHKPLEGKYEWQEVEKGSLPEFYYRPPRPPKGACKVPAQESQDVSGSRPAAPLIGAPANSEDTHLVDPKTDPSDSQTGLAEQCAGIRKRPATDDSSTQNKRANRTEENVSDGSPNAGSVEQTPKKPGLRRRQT
p27-NT (residues 1-60), Gal4 DBD fusion: residues 1-60 of P46527
p27-ΔN (residues 61-198), Gal4 DBD fusion: residues 61-198 of P46527

[5] = target: p27 (CDKN1B), Gal4 DBD fusion (human) (UniProt P46527); assay: two-hybrid; Y190; pVHL30 with p27 wild type or mutants; selective medium supplemented with 60 mM 3AT to increase the stringency
[6] = target: p27 D37N, Gal4 DBD fusion (human) (UniProt P46527); assay: as above
[7] = target: p27 E40K, Gal4 DBD fusion (human) (UniProt P46527); assay: as above
[8] = target: p27 P35L, Gal4 DBD fusion (human) (UniProt P46527); assay: as above
[9] = target: p27 T42A, Gal4 DBD fusion (human) (UniProt P46527); assay: as above
[10] = target: p21-ΔN (residues 50-164), Gal4 DBD fusion (human) (UniProt P38936); assay: two-hybrid; Matchmaker Gold system, Y190 reporter strain; Gal4AD-pVHL and Gal4BD-CDKN1 fusions; serial dilutions spotted on medium lacking histidine with 30 mM 3-AT, 30 °C, 3 to 8 days
[11] = target: p27-NT (residues 1-60), Gal4 DBD fusion (human) (UniProt P46527); assay: as above
[12] = target: p27-ΔN (residues 61-198), Gal4 DBD fusion (human) (UniProt P46527); assay: as above
[13] = target: T2, p57-NT (residues 1-61), Gal4 DBD fusion (human) (UniProt P49918); assay: as above
T2 sequence: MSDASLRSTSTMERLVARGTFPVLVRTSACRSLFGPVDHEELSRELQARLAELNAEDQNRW

[14] = target: T3, p57-ΔN (residues 62-316), Gal4 DBD fusion (human) (UniProt P49918); assay: as above
T3 sequence: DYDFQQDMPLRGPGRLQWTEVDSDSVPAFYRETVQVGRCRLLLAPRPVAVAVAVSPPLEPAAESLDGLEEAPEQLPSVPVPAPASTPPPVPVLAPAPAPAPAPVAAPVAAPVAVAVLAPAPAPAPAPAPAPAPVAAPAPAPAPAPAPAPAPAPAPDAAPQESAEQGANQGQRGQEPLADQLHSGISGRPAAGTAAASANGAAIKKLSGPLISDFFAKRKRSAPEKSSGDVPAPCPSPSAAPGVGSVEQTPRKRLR

“Flag-tagged p21 (CDKN1A) (from UniProt P38936 1-164)” was tested, and the binding [1] was “binds”.

For “Flag-tagged p27 (CDKN1B) (from UniProt P46527 1-198)”, the binding [1] was “binds”.

For “pVHL19 isoform (residues 54-213), Gal4 AD fusion (from UniProt P40337 54-213)”, the binding [2] was “binds”, the binding [3] was “binds” and the binding [4] was “binds”.

In the case of “pVHL N-terminal disordered tail (residues 1-53), Gal4 AD fusion (from UniProt P40337 1-53) (domain or fragment)”, the binding [2] was “no binding”, the binding [3] was “no binding” and the binding [4] was “no binding”.

For “pVHL β-domain (residues 54-157), Gal4 AD fusion (from UniProt P40337 54-157) (domain or fragment)”, the binding [2] was “binds”, the binding [3] was “binds” and the binding [4] was “binds”.

In the case of “von Hippel-Lindau tumor suppressor protein pVHL30, Gal4 AD fusion (from UniProt P40337 1-213)”, the binding [5] was “binds”, the binding [6] was “binds” and the binding [7] was “binds weakly”. For the same substance, the binding [8] was “binds”, the binding [9] was “binds” and the binding [2] was “binds”. The binding [10] was “no binding”, the binding [3] was “binds” and the binding [11] was “binds”. For the same substance, the binding [12] was “no binding”, the binding [4] was “binds” and the binding [13] was “binds”. The binding [14] was “no binding”.

Reference: PMC5397843
